Measured values published in PubChem BioAssay AID624417 (National Center for Advancing Translational Sciences (NCATS), 2012).
Among all 410,000 compounds or so, about 6,400 (1.6%) were called active. Inconclusive means that the source gave no clear call. Such entries were picked first, then a sample of the others. The call rests on the fitted dose curve; in most records, active means well fitted inhibition curve with a large enough effect; inconclusive means small, poorly fitted or top-dose-only effect; inactive means no such curve, though single readings can be large or run the other way. Where the call is inconclusive, the potency comes from a doubtful curve fit.

These compounds were tested against Glucagon-like peptide 1 receptor (Homo sapiens) (UniProt P43220) (assay: qHTS of GLP-1 Receptor Inverse Agonists (Inhibition Mode)). Conditions: HEK293 GLP-1R CRE-luciferase, luminescence, 24 h, GLP-1R form is constitutively active; activity change, negative = inhibition: at 38.3 µM (top of the series) unless noted.
Outline: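 Constitutively active GLP-1R drives a cAMP-responsive luciferase in stably transfected HEK293 cells; test compounds are added after overnight (12 h) attachment and left 24 hr, and signal loss in luminescence marks inhibition.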
Further: nearly all actives have a fitted effect of over 55% in size.
On the % scale 0 is the no-effect control and ±100 the full control effect; potency means the concentration at half of the fitted maximal effect; tags describe the fitted curve by direction and shape.

Sequence of UniProt P43220 (P43220 whole entry, looked up): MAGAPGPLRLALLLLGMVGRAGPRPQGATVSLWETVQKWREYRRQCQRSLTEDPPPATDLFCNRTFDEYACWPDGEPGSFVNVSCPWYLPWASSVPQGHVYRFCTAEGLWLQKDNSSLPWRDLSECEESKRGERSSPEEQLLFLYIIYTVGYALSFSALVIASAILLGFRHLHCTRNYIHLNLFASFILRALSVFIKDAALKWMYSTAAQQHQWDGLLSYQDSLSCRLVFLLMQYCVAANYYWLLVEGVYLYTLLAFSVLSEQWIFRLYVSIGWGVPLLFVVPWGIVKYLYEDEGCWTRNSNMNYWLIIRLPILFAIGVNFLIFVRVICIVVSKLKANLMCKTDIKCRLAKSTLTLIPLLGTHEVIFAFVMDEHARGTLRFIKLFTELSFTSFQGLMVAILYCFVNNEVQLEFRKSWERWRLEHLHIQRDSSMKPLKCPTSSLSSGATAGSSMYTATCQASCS

Potency, active:
CN1CCN(CCCNC(=O)c2ccc(CSCc3cccc(Cl)c3)o2)CC1 10 µM, CC(C)Oc1cc(F)ccc1-c1cc(C(=O)Nc2ccccc2)[nH]n1 11.2 µM, CC(C)(C)c1csc(NC(=O)c2ccc(Br)o2)n1 10 µM

Potency, inconclusive:
CCOc1ccc(N(CC)S(=O)(=O)N2CCCC(C(=O)NCc3ccc(Cl)cc3)C2)cc1 (stereo not given) 10 µM [inhibitor, single point], O=C(Cc1ccc(F)cc1)NCCc1csc(-c2cccc(F)c2)n1 14.1 µM [inhibitor, single point], Cc1cc(NC(=O)CN2CCN(c3ccccn3)CC2)ccc1Br 12.6 µM [inhibitor, single point], NNC(=O)c1ccc(COc2ccc(Br)cc2)o1 14.1 µM [inhibitor, single point], Cc1ccc(S(=O)(=O)NC(CC(=O)OCc2ccccc2)C(=O)OCc2ccccc2)cc1 (stereo not given) 10 µM [inhibitor, partial curve, poor fit], COc1ccc(-c2noc(Cn3c(=O)c4ccccc4n(CC(=O)Nc4cccc(C(F)(F)F)c4)c3=O)n2)cc1 28.2 µM [inhibitor, single point], N#Cc1c(N)nc(SCc2ccccc2)c(C#N)c1-c1ccco1 28.2 µM [inhibitor, single point], COc1cc(C2C(C#N)=C(N)Oc3cc(O)ccc32)cc2c1OCO2 (stereo not given) 22.4 µM [inhibitor, single point], CCOc1ccc(NC(=O)c2ccc(F)c(S(=O)(=O)N3CCCC3)c2)cc1 8.91 µM [inhibitor, partial curve, poor fit], CCOC(=O)c1c(NC(=O)C2CCCCC2)sc2c1CCN(C(C)C)C2 14.1 µM [inhibitor, partial curve, poor fit], COc1cc(OC)cc(C(=O)Nc2ccc(-c3nc4ccccc4o3)cc2)c1 11.2 µM [inhibitor, partial curve], Cn1nnnc1SCCNCc1ccccc1OCc1ccc(Cl)cc1Cl 8.91 µM [inhibitor, partial curve, poor fit], CCOC(=O)c1c(-c2ccccc2)oc2ccc(OC(C)=O)cc12 14.1 µM [inhibitor, single point], CCCCCCCCCCCCCCCC(=O)OC(CC(=O)O)C[N+](C)(C)C (stereo not given) 10 µM [inhibitor, single point], O=C1NN(c2ccccc2)C(=O)/C1=C/c1ccc(-c2cccc(C(=O)O)c2)o1 7.94 µM [inhibitor, partial curve, poor fit], COc1cc(CN2CCCC(C(=O)c3ccccc3SC)C2)cc(OC)c1 (stereo not given) 10 µM [inhibitor, partial curve], COc1cc2c(cc1OC)C(COc1ccc(F)cc1)N(C(=O)c1ccccc1F)CC2 (stereo not given) 10 µM [inhibitor, single point], Cc1ccc(OCCCn2c(=O)sc3ccccc32)cc1 11.2 µM [inhibitor, single point], Cc1cccc(-c2nnc(SCC(=O)N3CCCc4ccccc43)o2)c1 28.2 µM [inhibitor, single point], CC(C)(CNC(=O)c1ccc(-c2cccc(C(F)(F)F)c2)o1)N1CCOCC1 10 µM [inhibitor, partial curve, poor fit], Cn1nnnc1SCC(=O)Nc1ccc2c(c1)OCCO2 8.91 µM [inhibitor, partial curve], CCOCCCNC(=O)Nc1cc(C(=O)NCc2ccc(C(C)C)cc2)ccc1N1CCCC1 28.2 µM [inhibitor, single point], O=C(CCS(=O)(=O)c1ccccc1)Nc1cccc(-c2nc3ccccc3s2)c1 28.2 µM [inhibitor, single point], COc1ccc(N2C(=O)C3C4c5ccccc5C(C=Nc5ccc(C)cc5C)(c5ccccc54)C3C2=O)cc1 (stereo not given) 8.91 µM [inhibitor, partial curve, poor fit], CCN(CC)c1ccc(CNc2ccc(Br)cn2)cc1 5.01 µM [inhibitor, partial curve], O=c1c2c([nH]n1-c1ccccc1)CCSC2 22.4 µM [inhibitor, single point], O=C(/C=C/c1ccco1)Oc1cccc2cccnc12 2.82 µM [inhibitor, full curve, poor fit], CCN1CCc2c(sc(NC(=O)c3cc4ccccc4cc3OC)c2C(N)=O)C1 20 µM [inhibitor, partial curve, poor fit], Fc1ccc(COc2ccc(C(=S)N3CCCC3)cc2)cc1 28.2 µM [inhibitor, single point], CC(=O)c1ccc(OCCOc2ccc([N+](=O)[O-])cc2)cc1 28.2 µM [inhibitor, single point], Cc1ccccc1CC1(CO)CCCN(C(=O)c2ccc(F)cc2)C1 (stereo not given) 28.2 µM [inhibitor, single point], O=C(N/N=C/c1cc(Br)ccc1O)c1ccccc1Cl 2.24 µM [inhibitor, full curve, poor fit], COc1ccccc1-c1cc(C(F)(F)F)nc(NCc2ccco2)n1 22.4 µM [inhibitor, partial curve, poor fit], CCN1C(C(=O)c2ccccc2)=C(OC(=O)COc2ccccc2)c2ccccc2S1(=O)=O 28.2 µM [inhibitor, single point], CCCCCn1c(=O)c2ccccc2n2c(CCl)nnc12 20 µM [inhibitor, single point], CS(=O)(=O)N1CCC(C(=O)Nc2cc(Cl)cc(Cl)c2)CC1 31.6 µM [inhibitor, single point], CCC(=O)Nc1ccc(N2CCCCC2)c(C(=O)Nc2ccccc2C)c1 8.91 µM [inhibitor, single point], COc1ccc(C(=O)C2CCN(C(=O)Nc3ccc(C)cc3)CC2)cc1 11.2 µM [inhibitor, single point], COc1cccc(N2CCN(c3c(C#N)c(C(F)(F)F)nn3C)CC2)c1 10 µM [inhibitor, partial curve, poor fit], Cc1cc(C)c(S(=O)(=O)N2CCN(Cc3nc4ccc(C)cc4o3)CC2)c(C)c1 12.6 µM [inhibitor, single point], CC1(C)C/C(=N\NC(=S)Nc2ccccc2F)c2cc(O)ccc2O1 28.2 µM [inhibitor, single point], C/C=C/COC(=O)c1[nH]c2c(c1C)C(=O)CC(c1ccc(N(C)C)cc1)C2 (stereo not given) 22.4 µM [inhibitor, single point], CCCCCCCCCCCC1N=C(N)NC(CCCO)=C1C(=O)OC (stereo not given) 12.6 µM [inhibitor, partial curve, poor fit], COc1cc(NC(=O)c2cccs2)c(OC)cc1NC(=O)CCC(=O)Nc1cccc2ncccc12 14.1 µM [inhibitor, single point], CC(C)C1/C(=N/O)CC(c2ccccc2)NC1c1ccccc1 (stereo not given) 12.6 µM [inhibitor, partial curve, poor fit], COc1ccc(CN(C(=O)CSc2nnc(-c3ccccc3C)o2)c2ccc(F)cc2)cc1 12.6 µM [inhibitor, single point], CCN(c1ccccc1)S(=O)(=O)c1ccc(Oc2ccccc2C(C)=O)nc1 7.08 µM [inhibitor, partial curve, poor fit], Cc1ccc(NC(=O)CN(C)C(=O)COC(=O)c2oc3ccccc3c2C)cc1 11.2 µM [inhibitor, partial curve, poor fit], O=C(NCCc1ccccc1)c1c(O)c2cccc3c2n(c1=O)CC3 0.631 µM [inhibitor, full curve, poor fit], CCOCN(C(=O)Cn1c(CO)nc2ccccc21)c1c(C)cccc1CC 0.447 µM [inhibitor, partial curve, poor fit]

Activity change, negative = inhibition, inactive:
COc1ccc(NC(=O)NC(=O)c2ccccc2)cc1 5.52%, O=C(CCNC(=O)Cn1ccc2ccccc2c1=O)NCCN1CCc2ccccc2C1 -14.7%, Cc1ccc(C)c(NS(=O)(=O)c2ccc3c(c2)n(C)c(=O)n3C)c1 -5.57%, Cc1cccc(CS(=O)(=O)c2ncc(Cl)c(C(=O)Nc3nc4ccc(F)cc4s3)n2)c1 -1.31%, COc1ccc2oc(C(=O)OCC(=O)N3CCCC3=O)c(C)c2c1 8.27%, CCOC(=O)c1cnc(-n2nc(C)cc2C)nc1NCCO -2.61%, Cc1ccc(S(=O)(=O)c2nnn3c2nc(NCc2cccs2)c2sccc23)cc1C 19.6%, C[N+]1([O-])[C@@H]2Cc3cc4c(cc3[C@@H]1Cc1cc3c(cc12)OCO3)OCO4 (stereo not given in full) 14.6%, CCCCCCCCCCCCCCCC(=O)NCCO 45.9%, O=C(O)CC(NS(=O)(=O)c1ccc(Br)s1)c1ccccc1 (stereo not given) 10.8%, Cc1nn(C)c(C(=O)NNC(=S)Nc2ccc(Cl)cc2)c1[N+](=O)[O-] 4.59%, COc1cccc2sc(N3CCN(C(=O)CS(=O)(=O)c4ccc(Cl)cc4)CC3)nc12 -24.5%
